Among all 52,000 compounds or so, about 1,700 (3.3%) were called active. No stated cut-off is given here; in the data, active means survival mostly below about 52% (no sharp cut-off); inactive means mostly above about 56%. This is one part of the list.
System: Wild type
Test: growth inhibition of S. aureus wild type versus tarO mutant, primary screen, teichoic acid synthesis inhibitors, RN4220, OD600 (AID 463173)
Details: S. aureus RN4220 wild type/DeltatarO growth, OD600, 18 h, active compounds read low, screened at 18.75 µg/mL (by protocol)

Row | SMILES | survival
1 | COc1ccc2c(c1)Cc1sc(NC(=O)c3ccccc3C)nc1-2 | inactive: 133%
2 | CC(C)(C)C(=O)Nc1cccc(C(=O)O)c1 | inactive: 106%
3 | CCOc1ccc(-c2nnc(SCC(=O)NC3CCCCC3)nc2-c2ccc(OCC)cc2)cc1 | inactive: 94%
4 | COc1ccc(C2=C(C)C(N3CCC(C(=O)NCc4ccc(C)o4)CC3)=NS2(=O)=O)cc1 | inactive: 76%
5 | COc1cc(C)nc(N(C)S(=O)(=O)c2ccccc2)n1 | inactive: 108%
6 | COc1ccc(NC(=O)Cn2cnc3ccc(S(=O)(=O)N4CCC(C)CC4)cc3c2=O)c(OC)c1 | inactive: 95%
7 | COc1cccc(CNC(=O)c2ccc(-c3nc(CS(=O)c4ccccc4)c(C)o3)cc2)c1 (centres undefined) | inactive: 69%
8 | COCCN(Cc1cc2c(C)cc(C)cc2nc1Cl)C(=O)c1ccco1 | inactive: 105%
9 | Cc1ccc(NC(=O)Cc2ccc(NC(=O)N3CCCCc4ccccc43)cc2)cc1Cl | inactive: 66%
10 | CCN(CC)c1ccc(NC(=O)Cn2ncc3c(C)n(Cc4ccccc4F)c(C)c3c2=O)c(C)c1 | inactive: 97%
11 | COc1ccc(/C=C/C(=O)Nc2ccc(C)cc2)cc1 | inactive: 85%
12 | CC(=O)c1ccc(NC(=O)Nc2ccc3snnc3c2)cc1 | inactive: 69%
13 | CC1CC(C)N(C(=O)c2cc(-c3ccccc3)on2)C(C)C1 (centres undefined) | inactive: 129%
14 | CCOC(=O)c1ccc(N2C(=O)c3n[nH]c(-c4ccco4)c3C2c2ccc(OC)cc2OC)cc1 (centres undefined) | inactive: 82%
15 | COc1cccc(-c2nc(S(=O)(=O)c3ccc(C)cc3)c(N3CCCCCC3)o2)c1 | inactive: 44%
16 | Cc1cccc(C)c1-n1ncc(C(=O)NCCCN2CCCCC2)c1C1CCN(C(=O)OC(C)(C)C)CC1 | inactive: 85%
17 | CCCCOc1ccc(C(=O)NCC(c2ccc(Cl)cc2)N2CCOCC2)cc1 (centres undefined) | inactive: 67%
18 | COC(=O)c1nnn(-c2cccc(C)c2)c1N | inactive: 68%
19 | O=C(Nc1ccc(Oc2ccccc2)cc1)c1ccc(F)c(S(=O)(=O)N2CCN(c3cccc(Cl)c3)CC2)c1 | inactive: 73%
20 | CCOc1ccc2[nH]c(=O)c(CNCCCO)cc2c1 | inactive: 114%
21 | CCC(=O)Nc1nnc(CC(=O)N/N=C/c2ccc(O)cc2)s1 | inactive: 112%
22 | N#C/C(=C/c1ccc(-c2ccc(S(N)(=O)=O)cc2)o1)C(=O)Nc1cc(Cl)ccc1Cl | inactive: 107%
23 | CCOC(=O)c1ccc(NC(=O)CN(Cc2ccc(C)cc2)S(=O)(=O)c2ccc(C)cc2)cc1 | inactive: 70%

Row | SMILES | survival
24 | COc1ccc(-n2c(SCc3nc(-c4ccc(C)cc4)no3)nnc2-c2ccccc2)cc1 | inactive: 77%
25 | CC(C)Oc1ccc(CNC(=O)CN2C(=O)CCn3nc(-c4cn(C)c5ccccc45)cc32)cc1 | inactive: 133%
26 | Fc1ccccc1N1CCN(Cc2nnc(-c3ccc4c(c3)OCO4)o2)CC1 | inactive: 90%
27 | CC1CN(C(=O)Nc2ccc(C(=O)NCc3ccccc3F)cc2)c2ccccc2S1 (centres undefined) | inactive: 107%
28 | COC(=O)c1ccc(NC(=O)CSc2n[nH]c(-c3ccccc3)n2)cc1 | inactive: 92%
29 | Cc1ccc(S(=O)(=O)N2Cc3ccccc3CC2C(=O)N(C)C)cc1 (centres undefined) | inactive: 102%
30 | Cc1ccc(C)c(N2C(=O)N(Cc3ccccc3C)c3ccccc3S2(=O)=O)c1 | inactive: 117%
31 | Cc1ccccc1OCC(=O)Nc1ccc2oc(-c3ccc(F)cc3)nc2c1 | inactive: 134%
32 | O=C(Nc1nc2c(Cl)cccc2s1)c1ccc(S(=O)(=O)N2CCc3ccccc32)cc1 | inactive: 69%
33 | COc1ccc(C)cc1NC(=O)COc1cc(=O)n(C)c2ccccc12 | inactive: 75%
34 | COc1ccc(NC(=O)c2ccco2)cc1NC(=O)COc1cccc(C)c1C | inactive: 79%
35 | CCc1ccc(NC(=O)CN(C)S(=O)(=O)c2ccc3c(c2)c(=O)n(C)c(=O)n3C)cc1 | inactive: 132%
36 | O=C(CSc1oc(-c2ccccc2)nc1S(=O)(=O)c1ccc(Br)cc1)c1ccccc1 | inactive: 76%
37 | O=C(Oc1ccccc1)C1C2CCCCC21 (centres undefined) | inactive: 106%
38 | CCOC(=O)/C(C#N)=C/c1ccc(-c2ccc(Cl)c(C(=O)OC)c2)o1 | inactive: 119%
39 | CCOC(=O)c1cc2c(=O)n3ccccc3nc2n(Cc2ccco2)c1=NC(=O)c1ccc(Br)cc1 | inactive: 86%
40 | Cc1ccc(NC(=O)c2nnn(Cc3ccccc3)c2N)cc1C | inactive: 72%
41 | O=C(Nc1ccc(Br)cc1)c1ccc(F)c(S(=O)(=O)NC2CCCCCC2)c1 | inactive: 56%
42 | Cc1ccccc1-c1nc(SCC(=O)NCc2ccc(F)cc2)c2c(=O)n(C)c(=O)n(C)c2n1 | inactive: 110%
43 | COC(=O)c1cc2c(ccn2-c2ccc(F)cc2)n1Cc1ccccc1 | inactive: 88%
44 | COc1ccccc1N1CCN(c2nc3ccccc3n3cnnc23)CC1 | inactive: 75%
45 | COc1ccc(-c2nc(-c3cc4cc(Br)ccc4oc3=O)cs2)cc1 | inactive: 83%
46 | Cc1ccc2nc(N(CCCN(C)C)C(=O)c3ccco3)sc2c1 | inactive: 72%

Row | SMILES | survival
47 | Cc1ccc(-n2nc(CO)c(C(=O)NCc3ccccn3)n2)cc1 | inactive: 89%
48 | O=C(CCn1nc(-c2ccccc2)c2ccccc2c1=O)Nc1ccccc1 | inactive: 86%
49 | Cc1cccc(C)c1NC(=O)Nc1csc2c1CCCC2 | inactive: 78%
50 | CCn1c(CNc2nc(-c3ccccc3)cs2)nnc1SCC(=O)c1ccc(OC)cc1 | inactive: 121%
51 | CCc1ccc(-n2nnc(-c3nsc(NC(=O)c4ccccc4Cl)n3)c2C)cc1 | active: 12%
52 | CC(=O)Nc1ccc(NC(=O)c2cc(=O)c3ccccc3o2)cc1 | inactive: 85%
53 | Cc1cc(-c2ccc(C)c(S(=O)(=O)Nc3cccc(C)n3)c2)on1 | inactive: 70%
54 | COc1ccc(OCc2ccc(-c3nc(C#N)c(N4CCN(c5ccccc5)CC4)o3)o2)cc1 | inactive: 87%
55 | Cc1ccc2c(c1)N(C(=O)N1CCC(C(=O)NCc3cccc(Br)c3)CC1)CCO2 | inactive: 78%
56 | O=C(O)C(CO)NS(=O)(=O)c1ccc(F)cc1 (centres undefined) | inactive: 112%
57 | COc1ccc(Nc2nc3ccccc3nc2NS(=O)(=O)c2ccc(C)cc2)c(OC)c1 | inactive: 63%
58 | CCOC(=O)c1cc(-c2ccccc2)n(CCC(=O)NCc2ccccc2Cl)c1C | inactive: 82%
59 | COC(=O)c1sc2cccc(F)c2c1S(=O)(=O)N1CCN(c2cccc(OC)c2)CC1 | inactive: 80%
60 | COc1cccc2cc(S(=O)(=O)c3ccc(F)c(C)c3)c(=O)oc12 | inactive: 73%
61 | CCN(CC)c1cc(C)c2cc(NC(=O)c3cccc(OC)c3OC)ccc2n1 | inactive: 110%
62 | O=C(COc1ccccc1F)OCc1cc(=O)n2nc(C3CCCCC3)sc2n1 | inactive: 69%
63 | O=C1Nc2ccccc2Oc2cc(Oc3cccc(Cl)c3)ccc21 | inactive: 43%
64 | Fc1ccc(N2CCN(c3nc4ccccc4c4nc(-c5cccnc5)nn34)CC2)cc1 | inactive: 87%
65 | Cc1nnc(N2CCCC(C(=O)NCc3ccccc3)C2)c2nn(-c3ccccc3)c(C)c12 (centres undefined) | inactive: 72%
66 | CCCCN(C)CCNC(=O)C1CCCN(S(=O)(=O)c2cccc3nsnc23)C1 (centres undefined) | inactive: 87%
67 | Cc1c(Cl)cccc1-c1ccc(CNCCCSc2nnnn2C)o1 | inactive: 67%
68 | CCc1ccc(S(=O)(=O)c2cn(C)c3cc(N4CCOCC4)c(F)cc3c2=O)cc1 | inactive: 72%
69 | Cc1nc2nc(SCC(=O)N(C)Cc3ccccc3)nn2c(C)c1Cc1ccccc1Cl | inactive: 71%

Row | SMILES | survival
70 | Cc1cc(C)c(S(=O)(=O)N2CCC(n3c(C(F)(F)F)nc4cccnc43)CC2)c(C)c1 | inactive: 71%
71 | Cc1cn2c(=O)cc(COc3cccc(NC(=O)c4ccc(C(C)(C)C)cc4)c3)nc2s1 | inactive: 76%
72 | O=C(Cn1nnc(-c2ccccc2)n1)N1CCCCC1 | inactive: 109%
73 | CCOC(=O)C1CCN(CC(=O)Nc2cc(C)c3c(=O)oc4ccccc4c3n2)CC1 | inactive: 119%
74 | C=CCc1ccccc1OCCSc1nc(-c2cccs2)nc2cc(=O)[nH]n12 | inactive: 72%
75 | CCOc1ccc(NC(=O)c2c(C)nn(-c3ccc(F)cc3)c2-n2cccc2)cc1 | inactive: 77%
76 | O=C(CCn1cnc2onc(-c3ccc(F)cc3)c2c1=O)Nc1ccc(F)c(Cl)c1 | inactive: 87%
77 | CCc1c(C)sc2c1CCN(Cc1ccccc1)C2c1ccccc1 (centres undefined) | inactive: 80%
78 | O=C(Nc1ccc(OCc2cc(=O)n3c4c(sc3n2)CCCC4)cc1)c1cccc(F)c1 | inactive: 78%
79 | C=CCN1C(=O)C(=O)/C(=C(\O)c2ccccc2)C1c1ccccc1 (centres undefined) | inactive: 102%
80 | Cc1nn(-c2ccccc2)c2nc(C3CC3)cc(C(=O)Nc3ccc(F)cc3)c12 | inactive: 79%
81 | Cc1ccc(NC(=O)CN(C)S(=O)(=O)c2ccc3c(c2)n(C)c(=O)c(=O)n3C)cc1F | inactive: 92%
82 | Cc1ccc2c(c1)-c1onc(C(=O)N(C)c3cccc(C(F)(F)F)c3)c1CO2 | inactive: 121%
83 | c1coc(CNc2ncnc3sc4c(c23)CCCC4)c1 | inactive: 108%
84 | CC1(C)Cc2c(c(N3CCOCC3)nc3sc(C(=O)Nc4ccc(Cl)cc4)c(N)c23)CO1 | inactive: 65%
85 | CCOc1ccc(S(=O)(=O)Nc2cccc(-c3ccc(N4CCCC4)nn3)c2)cc1 | inactive: 129%
86 | Cc1cccc(NC(=O)CSc2nc(-c3cccc(C)c3)nc3c2Cc2c(CO)cnc(C)c2O3)c1 | inactive: 115%
87 | CCc1nc2ccc(C(=O)NCc3ccc(OC)c(OC)c3)cc2nc1CC | inactive: 81%
88 | Cc1ccc2c(CC(=O)Nc3cccc(C(F)(F)F)c3)coc2c1 | active: 8%
89 | CCOC(=O)COc1ccc(/C=C(\C#N)c2nc3ccc(C)cc3[nH]2)cc1OC | inactive: 67%

Reference: PubChem BioAssay AID463173 (ICCB-Longwood Screening Facility, Harvard Medical School, 2010)
